{"source": "the supplement of paper PMC8728848", "binders": {"B1": {"name": "rAAL-H59Q (Agrocybe aegerita), Q6WY08 (protein)", "chain": "MQGVNIYNISAGTSVDLAAPVTTGDIVTFFSSALNLNAGAGNPNNTTLNLFAENGAYLLQIAFRLQENVIIFNSRQPDGPWLVEQRVSDVANQFAGIDGKAMVTVFDHGDKYQVVINEKTVIQYTKQISGLTLSLSYNATEETSIFSTVVEAVTYTGLALEHHHHHH"}}, "assay_in_all_cases": "glycan array binding signal (z-score within array); higher = stronger binding", "conditions_in_all_cases": "glycan notation: IUPAC condensed, linker removed; mutation: H59Q", "key": {"Fuc(a1-2)Gal": {"molecular_target": "Fuc(a1-2)Gal", "summary_of_the_method": "(§1)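 Negative Z-scores can be read as non-binding. The Z-score is calculated within each array and then averaged across arrays of one protein sequence at different concentrations or buffers and across linkers. Arrays, 3228 in all, were curated from the Consortium for Functional Glycomics database and kept only where the protein sequence was available.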"}, "Fuc(a1-2)Gal(b1-3)GalNAc": {"molecular_target": "Fuc(a1-2)Gal(b1-3)GalNAc", "summary_of_the_method": "as §1"}, "[1]": {"molecular_target": "Fuc(a1-2)Gal(b1-3)GalNAc(a1-3)[Fuc(a1-2)]Gal(b1-4)Glc", "summary_of_the_method": "as §1"}, "[2]": {"molecular_target": "Fuc(a1-2)Gal(b1-3)GalNAc(a1-3)[Fuc(a1-2)]Gal(b1-4)GlcNAc", "summary_of_the_method": "as §1"}, "[3]": {"molecular_target": "Fuc(a1-2)Gal(b1-3)GalNAc(b1-3)Gal", "summary_of_the_method": "as §1"}, "[4]": {"molecular_target": "Fuc(a1-2)Gal(b1-3)GalNAc(b1-3)Gal(a1-4)Gal(b1-4)Glc", "summary_of_the_method": "as §1"}, "[5]": {"molecular_target": "Fuc(a1-2)Gal(b1-3)GalNAc(b1-4)[Neu5Ac(a2-3)]Gal(b1-4)Glc", "summary_of_the_method": "as §1"}, "Fuc(a1-2)Gal(b1-3)GlcNAc": {"molecular_target": "Fuc(a1-2)Gal(b1-3)GlcNAc", "summary_of_the_method": "as §1"}, "[6]": {"molecular_target": "Fuc(a1-2)Gal(b1-3)GlcNAc(b1-2)Man(a1-3)[Fuc(a1-2)Gal(b1-3)GlcNAc(b1-2)Man(a1-6)]Man(b1-4)GlcNAc(b1-4)GlcNAc", "summary_of_the_method": "as §1"}, "[7]": {"molecular_target": "Fuc(a1-2)Gal(b1-3)GlcNAc(b1-2)Man(a1-3)[Fuc(a1-2)Gal(b1-3)GlcNAc(b1-2)Man(a1-6)]Man(b1-4)GlcNAc(b1-4)[Fuc(a1-6)]GlcNAc", "summary_of_the_method": "as §1"}, "[8]": {"molecular_target": "Fuc(a1-2)Gal(b1-3)GlcNAc(b1-3)Gal(b1-4)Glc", "summary_of_the_method": "as §1"}, "[9]": {"molecular_target": "Fuc(a1-2)Gal(b1-3)GlcNAc(b1-3)GalNAc", "summary_of_the_method": "as §1"}, "[10]": {"molecular_target": "Fuc(a1-2)Gal(b1-3)GlcNAc(b1-3)[Fuc(a1-2)Gal(b1-3)GlcNAc(b1-6)]GalNAc", "summary_of_the_method": "as §1"}, "[11]": {"molecular_target": "Fuc(a1-2)Gal(b1-3)GlcNAc(b1-3)[Gal(b1-4)GlcNAc(b1-6)]Gal(b1-4)Glc", "summary_of_the_method": "as §1"}, "[12]": {"molecular_target": "Fuc(a1-2)Gal(b1-3)GlcNAc(b1-3)[Neu5Ac(a2-6)Gal(b1-4)GlcNAc(b1-6)]Gal(b1-4)Glc", "summary_of_the_method": "as §1"}, "[13]": {"molecular_target": "Fuc(a1-2)Gal(b1-3)GlcNAc6S", "summary_of_the_method": "as §1"}, "[14]": {"molecular_target": "Fuc(a1-2)Gal(b1-3)[Fuc(a1-4)]GlcNAc", "summary_of_the_method": "as §1"}, "[15]": {"molecular_target": "Fuc(a1-2)Gal(b1-3)[Fuc(a1-4)]GlcNAc(b1-2)Man(a1-3)[Fuc(a1-2)Gal(b1-3)[Fuc(a1-4)]GlcNAc(b1-2)Man(a1-3)]Man(b1-4)GlcNAc(b1-4)GlcNAc", "summary_of_the_method": "as §1"}, "[16]": {"molecular_target": "Fuc(a1-2)Gal(b1-3)[Fuc(a1-4)]GlcNAc(b1-2)Man(a1-3)[Fuc(a1-2)Gal(b1-3)[Fuc(a1-4)]GlcNAc(b1-2)Man(a1-6)]Man(b1-4)GlcNAc(b1-4)[Fuc(a1-6)]GlcNAc(b1-4)[Fuc(a1-6)]GlcNAc", "summary_of_the_method": "as §1"}, "[17]": {"molecular_target": "Fuc(a1-2)Gal(b1-3)[Fuc(a1-4)]GlcNAc(b1-3)[Fuc(a1-3)[Gal(b1-4)]GlcNAc(b1-6)]Gal(b1-4)Glc", "summary_of_the_method": "as §1"}, "[18]": {"molecular_target": "Fuc(a1-2)Gal(b1-3)[Fuc(a1-4)]GlcNAc(b1-3)[Gal(b1-4)GlcNAc(b1-6)]Gal(b1-4)Glc", "summary_of_the_method": "as §1"}, "[19]": {"molecular_target": "Fuc(a1-2)Gal(b1-4)Fuc(a1-3)]GlcNAc(b1-2)Man(a1-3)[Fuc(a1-2)Gal(b1-4)[Fuc(a1-3)]GlcNAc(b1-2)Man(a1-6)]Man(b1-4)GlcNAc(b1-4)GlcNAc", "summary_of_the_method": "as §1"}, "Fuc(a1-2)Gal(b1-4)Glc": {"molecular_target": "Fuc(a1-2)Gal(b1-4)Glc", "summary_of_the_method": "as §1"}, "Fuc(a1-2)Gal(b1-4)Glc6S": {"molecular_target": "Fuc(a1-2)Gal(b1-4)Glc6S", "summary_of_the_method": "as §1"}, "Fuc(a1-2)Gal(b1-4)GlcNAc": {"molecular_target": "Fuc(a1-2)Gal(b1-4)GlcNAc", "summary_of_the_method": "as §1"}, "[20]": {"molecular_target": "Fuc(a1-2)Gal(b1-4)GlcNAc(b1-2)Man", "summary_of_the_method": "as §1"}, "[21]": {"molecular_target": "Fuc(a1-2)Gal(b1-4)GlcNAc(b1-2)Man(a1-3)[Fuc(a1-2)Gal(b1-4)GlcNAc(b1-2)Man(a1-6)]Man(b1-4)GlcNAc(b1-4)GlcNAc", "summary_of_the_method": "as §1"}, "[22]": {"molecular_target": "Fuc(a1-2)Gal(b1-4)GlcNAc(b1-2)Man(a1-3)[Fuc(a1-2)Gal(b1-4)GlcNAc(b1-2)Man(a1-6)]Man(b1-4)GlcNAc(b1-4)[Fuc(a1-6)]GlcNAc", "summary_of_the_method": "as §1"}, "[23]": {"molecular_target": "Fuc(a1-2)Gal(b1-4)GlcNAc(b1-2)[Fuc(a1-2)Gal(b1-4)GlcNAc(b1-4)]Man(a1-3)[Fuc(a1-2)Gal(b1-4)GlcNAc(b1-2)Man(a1-6)]Man(b1-4)GlcNAc(b1-4)GlcNAc", "summary_of_the_method": "as §1"}, "[24]": {"molecular_target": "Fuc(a1-2)Gal(b1-4)GlcNAc(b1-3)Gal(b1-4)GlcNAc", "summary_of_the_method": "as §1"}}, "note": "Some of the results follow.", "data": [{"binder": "B1", "values": [{"measurement": "glycan array binding signal (z-score)", "setting": "Fuc(a1-2)Gal", "value": -0.098}, {"measurement": "glycan array binding signal (z-score)", "setting": "Fuc(a1-2)Gal(b1-3)GalNAc", "value": -0.081}, {"measurement": "glycan array binding signal (z-score)", "setting": "[1]", "value": -0.155}, {"measurement": "glycan array binding signal (z-score)", "setting": "[2]", "value": -0.081}, {"measurement": "glycan array binding signal (z-score)", "setting": "[3]", "value": -0.096}, {"measurement": "glycan array binding signal (z-score)", "setting": "[4]", "value": -0.127}, {"measurement": "glycan array binding signal (z-score)", "setting": "[5]", "value": -0.058}, {"measurement": "glycan array binding signal (z-score)", "setting": "Fuc(a1-2)Gal(b1-3)GlcNAc", "value": -0.059}, {"measurement": "glycan array binding signal (z-score)", "setting": "[6]", "value": -0.039}, {"measurement": "glycan array binding signal (z-score)", "setting": "[7]", "value": -0.104}, {"measurement": "glycan array binding signal (z-score)", "setting": "[8]", "value": -0.028}, {"measurement": "glycan array binding signal (z-score)", "setting": "[9]", "value": -0.124}, {"measurement": "glycan array binding signal (z-score)", "setting": "[10]", "value": -0.1}, {"measurement": "glycan array binding signal (z-score)", "setting": "[11]", "value": -0.069}, {"measurement": "glycan array binding signal (z-score)", "setting": "[12]", "value": -0.08}, {"measurement": "glycan array binding signal (z-score)", "setting": "[13]", "value": 0.075}, {"measurement": "glycan array binding signal (z-score)", "setting": "[14]", "value": -0.092}, {"measurement": "glycan array binding signal (z-score)", "setting": "[15]", "value": -0.014}, {"measurement": "glycan array binding signal (z-score)", "setting": "[16]", "value": -0.016}, {"measurement": "glycan array binding signal (z-score)", "setting": "[17]", "value": -0.104}, {"measurement": "glycan array binding signal (z-score)", "setting": "[18]", "value": -0.083}, {"measurement": "glycan array binding signal (z-score)", "setting": "[19]", "value": -0.035}, {"measurement": "glycan array binding signal (z-score)", "setting": "Fuc(a1-2)Gal(b1-4)Glc", "value": -0.115}, {"measurement": "glycan array binding signal (z-score)", "setting": "Fuc(a1-2)Gal(b1-4)Glc6S", "value": -0.072}, {"measurement": "glycan array binding signal (z-score)", "setting": "Fuc(a1-2)Gal(b1-4)GlcNAc", "value": -0.068}, {"measurement": "glycan array binding signal (z-score)", "setting": "[20]", "value": -0.136}, {"measurement": "glycan array binding signal (z-score)", "setting": "[21]", "value": -0.063}, {"measurement": "glycan array binding signal (z-score)", "setting": "[22]", "value": 0.03}, {"measurement": "glycan array binding signal (z-score)", "setting": "[23]", "value": -0.09}, {"measurement": "glycan array binding signal (z-score)", "setting": "[24]", "value": -0.144}]}]}
